Over roughly 33,000 sequences, “E-score (-0.5 to 0.5)” has its median near -0.041; the highest 2% begin near 0.37. The list shows a part of the results.
Each sequence was assayed against T1, Ecm22 (UniProt Q05958) (assay: PBM E-score (8-mer binding enrichment) (E-score (-0.5 to 0.5)); higher = stronger / more preferred TF binding; most listed sequences are background and not binding sites). Conditions: protein concentration: 200 nM; construct: GST-full length.
T1 sequence: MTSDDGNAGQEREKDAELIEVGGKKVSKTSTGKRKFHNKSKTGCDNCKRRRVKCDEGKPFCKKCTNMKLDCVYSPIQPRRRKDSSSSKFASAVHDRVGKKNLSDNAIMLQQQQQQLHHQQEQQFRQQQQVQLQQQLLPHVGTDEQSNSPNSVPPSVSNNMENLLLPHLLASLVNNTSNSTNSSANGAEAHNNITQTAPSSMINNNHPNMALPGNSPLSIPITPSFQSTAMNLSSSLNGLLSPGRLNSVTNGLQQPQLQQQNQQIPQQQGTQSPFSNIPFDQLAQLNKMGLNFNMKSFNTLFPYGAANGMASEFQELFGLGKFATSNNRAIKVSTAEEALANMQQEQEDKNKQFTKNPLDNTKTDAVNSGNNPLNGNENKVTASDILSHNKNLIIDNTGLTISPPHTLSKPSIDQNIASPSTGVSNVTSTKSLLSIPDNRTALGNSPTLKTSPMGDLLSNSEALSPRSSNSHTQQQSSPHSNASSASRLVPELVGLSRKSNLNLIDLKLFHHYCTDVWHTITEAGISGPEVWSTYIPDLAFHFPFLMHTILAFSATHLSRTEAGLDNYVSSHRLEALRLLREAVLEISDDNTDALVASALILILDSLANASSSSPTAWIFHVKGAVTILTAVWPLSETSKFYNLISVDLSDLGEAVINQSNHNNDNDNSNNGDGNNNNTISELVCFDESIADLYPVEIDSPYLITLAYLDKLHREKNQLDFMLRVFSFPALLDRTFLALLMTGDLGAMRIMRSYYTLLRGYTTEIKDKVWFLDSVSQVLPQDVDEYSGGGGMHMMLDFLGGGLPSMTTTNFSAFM
Method in brief: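 The E-score, a modified Wilcoxon-Mann-Whitney statistic, was computed by the Universal PBM Analysis Suite for every ungapped eight-base word pooled with its reverse complement. Scans behind it were normalised with masliner after bound GST-tagged yeast transcription factors were detected with fluorescent anti-GST. The proteins, at about 100-200 nM, had been applied to universal all-10-mer Agilent arrays made double-stranded by primer extension.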

Sequence	PBM E-score
TCCCCCGA	-0.256
ATACTGAG	0.115
CATGTCAC	-0.0003
ATGCGAAG	0.307
CCAAAATA	0.00964
AGGACAGC	-0.0286
GACACCCC	-0.147
CACTAACC	-0.0814
ACAAGTGA	-0.126
CGAAGTGA	0.251
GCGTACTA	0.152
AAGACGAT	0.0227
ATGAGCAA	-0.115
AGCGCGCC	-0.11
AGGGACCA	-0.0619
GCTCCGCC	-0.119
AGTCTACC	-0.156
ACTGTTAG	-0.138
GCACGAGC	0.0624
ACGTTCGG	0.0801
AGAAACAT	0.035
GCATAGAC	-0.0574
CTCAACTC	0.0353
AGAAACTC	0.0214
CCGGTCAC	-0.0785

Sequence	PBM E-score
CCAACGGA	-0.205
ACCATCGG	-0.111
AGCGCACT	-0.0861
GCTACTCA	-0.131
ATACAGGA	0.0363
AACGATCT	0.381
ACCGCGTA	0.175
AAGACGGA	-0.00193
CTCGACCC	-0.0126
TATCTGAA	-0.149
AATTTCGA	-0.036
ATAGGAGC	-0.162
GAAGAGAA	-0.0459
GTAGATTA	0.126
CTAGACAC	-0.163
ATAGGCTA	-0.333
CCTAATTC	-0.124
TGCAGGAA	-0.0414
AAAAACCG	-0.0814
GGACCCCA	-0.0375
ACCTCTAC	0.123
CGGTGCAG	-0.126
CAACTTTC	0.0654
GAGAGGTA	-0.0307
AACAGTTC	0.0451

Sequence	PBM E-score
CTCTTTGC	-0.0305
GTTAACAA	0.0939
GCGCCAAA	-0.0502
GTCGCACA	0.321
GCCTCCGC	-0.0824
ACTCGACG	0.0838
CCTCGGAC	0.246
GCCGTCCC	-0.18
CCGATTAA	0.0979
CGTAACCC	0.257
AATACTTC	-0.137
ACATCGTC	0.0184
CATTGTCC	-0.225
CAAATCAC	0.0334
AGATGCCT	-0.0331
AGTAAACG	0.427
CGATGAAA	0.0778
CATATGGG	-0.0838
CCAGGATC	-0.0711
ATCACTCG	0.236
AGCTGCAG	-0.101
CCTAAAGG	-0.221
GTTTTAGA	-0.149
AGACTGCA	-0.263
AGCAGGTC	-0.0791

Sequence	PBM E-score
AACAGGAA	-0.0582
CATCTGTC	-0.115
CCAGTCCA	-0.325
CCCAAATC	-0.14
GGAGCGCC	-0.173
CCTCCGAC	-0.156
CCACTACC	-0.219
CCCGAGCC	0.157
CTAACACA	0.0887
ATGTTAGA	-0.315
CTATTATA	-0.116
AAGCACTA	0.071
CACTAGGA	-0.238
TATTGGCA	-0.176
GCTCCTTA	-0.122
TCGCCCCA	-0.231
AACTACGA	0.262
AGCTCTAA	-0.194
CTCAAGAG	-0.236
CACTAATA	-0.0153
AGACACCT	-0.153
AGCATGCA	-0.171
ATATTGTA	0.125
CCTTACCG	0.173
ATGTAGAC	-0.213

Sequence	PBM E-score
ATAGTTAG	0.151
TAGGATGA	-0.0177
GTATTGTA	0.18
CAATGATC	0.0322
ATTGGACA	-0.0327
ATAGTACG	0.325
AAGCCAAG	-0.217
CATCGATG	-0.0644
CACACGGA	-0.0352
CTGCGACA	0.059
GGGCTACC	-0.271
ATACCAGG	-0.0891
AGATTAAC	0.155
CCACGGGC	-0.199
ACAATTGA	0.127
ACGCAGAA	0.176
GTTTAAGA	0.184
ACCGCAGC	-0.0492
AGTTTGAA	-0.213
CTCTCAGC	-0.285
CCCGCTCG	0.153
CCGCTGTC	-0.051
CACGTAAG	0.0432
AAGCCTGC	-0.0619
CCAGCAAA	0.101

Sequence	PBM E-score
TATACCGA	0.321
ATTGACAA	-0.176
AAATACTA	-0.0449
AAATTTGC	-0.0929
ATAGCTGG	-0.133
AGGGGCGG	-0.0152
ACCTAGCG	-0.00722
CAATAGGG	-0.0793
CGAGTCCC	0.13
AAACCCAC	0.0248
ACATTGTC	0.124
ATAATCAG	-0.128
CATGGGTA	-0.147
CGTATGAC	0.407
GTCTGGTA	0.00642
TCTACCCA	0.084
GGCTCGAA	0.0317
GATGAAGC	-0.137
GAGGACCC	-0.116
ACCATAGC	-0.261
AAAAATTC	-0.106
ACACGTTA	-0.126
AAAAGCAC	-0.0145
CACGTGCG	0.0495
CACCTCCA	-0.166

Sequence	PBM E-score
TAACAACA	0.144
CTTGTTGC	-0.159
ATTAGCCG	0.128
ACACACAA	-0.00806
CGAGCGCC	0.264
CGAGGACC	0.318
AGCTGAGG	-0.203
CCGGTTCG	0.156
ACCCCTAA	-0.228
ACAAAGGT	-0.0439
ACAAACGT	0.0208
CCAACCGA	0.264
AGGCCCCA	-0.182
GATGCAGA	-0.156
CTAACGAG	0.331
CCTGAACG	0.292
GGATCCTA	0.059
AGCTTTAT	-0.138
ATTTCCAA	-0.0471
CCATCCAG	-0.292
CTCGCGGA	0.0415
AAATAGCA	-0.186
GACATTGA	0.135
CACTAGAC	-0.0964
AGCTCACA	-0.228

Sequence	PBM E-score
ACTGCTAA	-0.357
ATAGTGCA	0.0533
ACGAGCGT	0.389
CGTCTGGA	-0.174
AGCCATGC	-0.17
AGATGGGG	-0.368
AACTTAGA	-0.0444
GTATAGGA	0.232
GCCCCAGC	-0.244
AAGTTCCC	-0.0835
AGGACTTG	-0.303
GCGAAGGA	0.0791
ATTCCACA	0.0456
AAAGTCTA	-0.186
ACTGACGC	-0.125
GAGAACAA	0.124
TGCTGCCA	-0.14
CCCATCAA	0.0874
CACCTTCC	-0.0449
ACGGCCCA	0.152
ATTGGGCA	-0.161
AGTTTCCG	0.17
CAGTCTAG	-0.0959
CTAGGTCA	-0.288
ATCGCTGG	-0.149

Sequence	PBM E-score
TGAATCAA	0.0462
ATCATCTC	0.0439
ACGTAGAA	0.158
GTTCAACA	0.0576
AAACACCA	-0.231
CACTGCAA	0.051
ACGTCGCT	0.241
TAAGGTCA	-0.27
AATCGGCG	-0.00384
CCATAAGG	-0.254
CGCCCGGA	-0.0269
GGTTCCAC	-0.237
AGGATTTC	-0.0414
ACGGGTCT	-0.124
CCTGTCAG	-0.0921
AAGTAGCA	-0.137
ATGGAACC	-0.0738
ACTGCGCC	-0.169
ATAACAAA	-0.0553
ACCTTGTG	-0.0515
AGACAGGG	-0.277
ACAACTTA	-0.00504
GTCCGTTA	0.167
AAAATACA	-0.0245
CGAATAGC	0.172

Sequence	PBM E-score
CAGTCACC	-0.218
GAAGGGCA	-0.243
CCCCCACG	-0.33
GTCATGCA	-0.12
ACATCGGA	0.175
AGCCTGTG	-0.21
ATCTCTAC	-0.0271
GACTTTAA	-0.109
CACTGCCG	0.0398
AAATTAAG	-0.0793
CCATGCGG	-0.162
CTATAACC	0.163
AGTTATTA	0.0743
CTTCCTGC	-0.314
CAGTGCTA	-0.0731
AACACTAA	-0.0969
GATAAGGA	-0.0834
GGAAATGA	-0.0702
AACAACTG	-0.112
AATCACGT	0.182
CGCTAGCA	-0.149
GCACGAAC	0.222
CCATCTAA	-0.215
GGAATCAC	-0.0614
AGAGCACG	-0.0628

Sequence	PBM E-score
AGGCCGAG	-0.00222
TGGCTGAA	-0.242
ATGTCGGG	0.0227
CAGATCGA	-0.0331
GATACATC	0.0609
AAAAAACT	-0.14
ATGTCTAC	0.0246
ATGTTGGA	0.00637
GCTTTCCA	-0.0729
GGTTTTCA	0.0909
CTCCAAAG	0.00115
AAGATGCC	-0.12
ACTTTAGC	0.00477
AGGGGAAC	0.0609
CATAAACC	-0.0464
CCTACTCG	0.0958
AGGTATGG	-0.0938
CATAACGG	-0.177
GACCTAGA	-0.0841
CGCGTTAC	0.159
TTCTAAAA	-0.00887
GTTAAAAC	0.11
CATTTCCC	-0.00773
ATAATGCC	-0.0529
TACTCTGA	-0.132

Sequence	PBM E-score
CGTCCTAA	-0.236
GCGTGCAC	-0.11
GGAGACCA	-0.269
CCCTGCTC	-0.219
CTGCGTGC	0.00733
CTCTAGGC	-0.197
CCGGACGG	-0.168
CGCCCTTA	-0.175
CACTGATC	-0.258
CCTGAAAC	0.0188
CATATTCA	0.0456
AGGGTGAA	-0.0566
CGGCATGA	0.109
CTTTACCC	0.0391
ACAACCGG	-0.0513
GACGTCTA	-0.23
CATTTGCC	-0.175
ATACTGTA	0.177
TTCTGAAA	-0.196
AGGCGCAC	-0.0776
CGAGTACC	0.21
CACTTCAA	-0.139
AATGATAC	0.186
GGAGGTTA	-0.135
AGAAGGGA	-0.396

Sequence	PBM E-score
GGAAGGGA	-0.172
ACGGCCGC	0.186
AAACAACT	-0.152
CACCTCCC	-0.215
AAATTAGC	0.172
CGGTCAGC	-0.0305
AAAGAGGA	-0.13
GCCGAGCA	-0.0367
GTATATCA	0.276
AGGTAGCA	-0.181
CGAAGCCG	0.053
ACATGCTA	-0.144
CTAATTAC	-0.0138
GGTAATAA	0.121
AGAGTCAA	-0.31
AGCAATAT	-0.0272
CTTGTGGA	-0.292
ATGTACGG	0.365
CATGGGAA	-0.00264
AAGGAGAC	-0.336
CGCGTTTA	0.342
CGAAGTCG	0.254
ACCATAGG	-0.0448
GAGTTAGA	-0.157
AATAAAAA	-0.00527

Sequence	PBM E-score
GATGGTAA	-0.0663
GACAGAGA	0.0187
CGACGTCG	0.281
AGTTGGCG	-0.0829
GATTATCA	0.0403
CCGATGCG	0.0233
GGCTTGGA	-0.243
CGGTACGA	0.492
ACCCATTA	0.124
GCGTATCC	0.142
GTGCTTGA	0.0697
CGAACACG	0.183
CCCACGCG	-0.157
AAGGGGCT	-0.186
CAAGTGTG	-0.263
AATTGCCG	0.0407
ACTCCCCG	0.0543
GGCGGACA	-0.0355
GCCAGTTA	0.0769
